# The supplement of paper PMC12067093, “Discovery and optimisation of a covalent ligand for TRIM25 and its application to targeted protein ubiquitination” (Chemical Science, 2025)
# The full data set covers some 21,000 targets. This sample favours those with the largest changes.
# Key:
# [1] = compound: CC1Cc2ccccc2N1C(=O)C1CCCN(C1)C(=O)CCl (mixture of isomers) [TRIM25 ligand 11 (diastereomer mixture)]; assay: probe-labelled cysteine peptide fold change vs DMSO (competition) (log2 fold change); higher = less target engagement (more negative = stronger competition); conditions: THP-1, incubation time: 4 h
# compound 10 = compound: Cc1cc(ccc1-c1ccccc1)C(=O)N1CCCN(CC1)C(=O)CCl [compound 10]; assay: as above; conditions: THP-1, incubation time: 4 h
# Sequence of UniProt Q9Y4W6 (Q9Y4W6 whole entry, looked up): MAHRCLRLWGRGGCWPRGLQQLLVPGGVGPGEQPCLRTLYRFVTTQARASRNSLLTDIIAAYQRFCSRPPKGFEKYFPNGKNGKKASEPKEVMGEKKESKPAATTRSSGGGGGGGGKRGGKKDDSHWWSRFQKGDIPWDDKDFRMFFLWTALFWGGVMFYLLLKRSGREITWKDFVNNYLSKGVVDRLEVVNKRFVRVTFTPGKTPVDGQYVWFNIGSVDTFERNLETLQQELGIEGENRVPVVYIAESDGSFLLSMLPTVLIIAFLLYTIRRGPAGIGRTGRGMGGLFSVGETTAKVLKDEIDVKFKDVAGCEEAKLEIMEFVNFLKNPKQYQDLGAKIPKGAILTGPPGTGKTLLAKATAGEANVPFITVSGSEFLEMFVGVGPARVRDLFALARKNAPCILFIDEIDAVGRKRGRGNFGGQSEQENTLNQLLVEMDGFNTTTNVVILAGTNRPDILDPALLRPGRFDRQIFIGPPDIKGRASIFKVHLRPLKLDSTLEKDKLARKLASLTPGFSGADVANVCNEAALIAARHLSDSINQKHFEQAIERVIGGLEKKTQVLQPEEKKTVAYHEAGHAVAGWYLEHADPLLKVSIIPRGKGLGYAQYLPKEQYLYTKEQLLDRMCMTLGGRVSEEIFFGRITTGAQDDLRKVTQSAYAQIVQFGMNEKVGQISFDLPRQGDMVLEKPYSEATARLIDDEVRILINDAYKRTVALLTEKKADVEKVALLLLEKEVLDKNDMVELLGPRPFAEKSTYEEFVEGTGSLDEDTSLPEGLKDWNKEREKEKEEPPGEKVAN
# Sequence of UniProt P49748 (P49748 whole entry, looked up): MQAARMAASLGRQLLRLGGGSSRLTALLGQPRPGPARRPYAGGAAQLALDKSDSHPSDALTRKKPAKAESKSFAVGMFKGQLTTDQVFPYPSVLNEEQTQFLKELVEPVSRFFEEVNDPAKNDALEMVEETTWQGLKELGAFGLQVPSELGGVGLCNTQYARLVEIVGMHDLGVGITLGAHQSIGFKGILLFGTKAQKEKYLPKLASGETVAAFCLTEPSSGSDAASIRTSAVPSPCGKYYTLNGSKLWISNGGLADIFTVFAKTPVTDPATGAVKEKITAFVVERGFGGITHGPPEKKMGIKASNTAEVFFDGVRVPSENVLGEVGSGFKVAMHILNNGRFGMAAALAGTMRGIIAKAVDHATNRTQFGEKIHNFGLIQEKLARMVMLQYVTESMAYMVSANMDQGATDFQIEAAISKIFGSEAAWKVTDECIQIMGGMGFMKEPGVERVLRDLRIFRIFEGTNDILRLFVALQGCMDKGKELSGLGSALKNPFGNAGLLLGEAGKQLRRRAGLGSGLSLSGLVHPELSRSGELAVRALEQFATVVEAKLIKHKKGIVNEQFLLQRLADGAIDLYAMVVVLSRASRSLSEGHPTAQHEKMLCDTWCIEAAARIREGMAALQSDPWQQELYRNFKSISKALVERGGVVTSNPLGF
# Sequence of UniProt Q86V21 (Q86V21 whole entry, looked up): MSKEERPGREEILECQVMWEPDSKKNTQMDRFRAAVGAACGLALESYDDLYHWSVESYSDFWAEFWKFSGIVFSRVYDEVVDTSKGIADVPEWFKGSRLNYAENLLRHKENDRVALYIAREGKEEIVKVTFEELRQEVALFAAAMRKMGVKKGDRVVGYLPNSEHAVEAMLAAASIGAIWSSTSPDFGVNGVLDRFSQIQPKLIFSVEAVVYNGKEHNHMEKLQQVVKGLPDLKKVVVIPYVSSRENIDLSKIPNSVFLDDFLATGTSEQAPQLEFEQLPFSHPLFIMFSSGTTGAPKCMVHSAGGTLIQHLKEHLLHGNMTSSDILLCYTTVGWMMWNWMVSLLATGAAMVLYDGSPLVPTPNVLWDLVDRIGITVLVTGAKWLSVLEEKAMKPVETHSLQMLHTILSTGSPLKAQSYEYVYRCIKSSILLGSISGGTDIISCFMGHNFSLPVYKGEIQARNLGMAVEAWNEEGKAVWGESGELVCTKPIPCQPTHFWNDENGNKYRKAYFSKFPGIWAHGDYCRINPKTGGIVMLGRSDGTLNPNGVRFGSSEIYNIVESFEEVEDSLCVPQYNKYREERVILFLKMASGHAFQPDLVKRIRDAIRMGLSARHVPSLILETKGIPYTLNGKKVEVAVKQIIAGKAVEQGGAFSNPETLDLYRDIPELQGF
# Sequence of UniProt Q8NE71 (Q8NE71 whole entry, looked up): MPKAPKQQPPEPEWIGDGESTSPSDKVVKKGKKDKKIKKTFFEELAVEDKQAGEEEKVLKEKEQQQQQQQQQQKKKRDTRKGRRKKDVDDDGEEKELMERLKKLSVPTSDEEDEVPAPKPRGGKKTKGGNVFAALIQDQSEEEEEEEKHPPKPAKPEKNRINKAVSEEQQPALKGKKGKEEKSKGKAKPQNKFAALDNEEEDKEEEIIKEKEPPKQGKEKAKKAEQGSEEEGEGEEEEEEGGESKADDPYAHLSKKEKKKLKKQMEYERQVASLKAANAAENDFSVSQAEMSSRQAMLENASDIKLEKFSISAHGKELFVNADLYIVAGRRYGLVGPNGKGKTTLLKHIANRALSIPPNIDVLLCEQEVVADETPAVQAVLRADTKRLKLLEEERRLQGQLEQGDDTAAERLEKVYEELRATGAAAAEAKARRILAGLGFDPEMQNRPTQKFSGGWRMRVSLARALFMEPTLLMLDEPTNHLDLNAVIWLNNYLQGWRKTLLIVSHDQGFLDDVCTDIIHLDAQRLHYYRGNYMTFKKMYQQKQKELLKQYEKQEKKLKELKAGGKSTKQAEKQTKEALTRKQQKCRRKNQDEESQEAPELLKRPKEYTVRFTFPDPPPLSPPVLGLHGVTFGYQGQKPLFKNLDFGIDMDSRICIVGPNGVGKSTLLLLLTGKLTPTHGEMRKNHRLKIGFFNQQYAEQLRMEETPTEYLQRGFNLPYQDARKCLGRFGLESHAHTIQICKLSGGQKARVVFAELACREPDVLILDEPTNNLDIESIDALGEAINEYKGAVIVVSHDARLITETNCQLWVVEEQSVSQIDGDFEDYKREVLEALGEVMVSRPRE
# Sequence of UniProt P12814 (P12814 whole entry, looked up): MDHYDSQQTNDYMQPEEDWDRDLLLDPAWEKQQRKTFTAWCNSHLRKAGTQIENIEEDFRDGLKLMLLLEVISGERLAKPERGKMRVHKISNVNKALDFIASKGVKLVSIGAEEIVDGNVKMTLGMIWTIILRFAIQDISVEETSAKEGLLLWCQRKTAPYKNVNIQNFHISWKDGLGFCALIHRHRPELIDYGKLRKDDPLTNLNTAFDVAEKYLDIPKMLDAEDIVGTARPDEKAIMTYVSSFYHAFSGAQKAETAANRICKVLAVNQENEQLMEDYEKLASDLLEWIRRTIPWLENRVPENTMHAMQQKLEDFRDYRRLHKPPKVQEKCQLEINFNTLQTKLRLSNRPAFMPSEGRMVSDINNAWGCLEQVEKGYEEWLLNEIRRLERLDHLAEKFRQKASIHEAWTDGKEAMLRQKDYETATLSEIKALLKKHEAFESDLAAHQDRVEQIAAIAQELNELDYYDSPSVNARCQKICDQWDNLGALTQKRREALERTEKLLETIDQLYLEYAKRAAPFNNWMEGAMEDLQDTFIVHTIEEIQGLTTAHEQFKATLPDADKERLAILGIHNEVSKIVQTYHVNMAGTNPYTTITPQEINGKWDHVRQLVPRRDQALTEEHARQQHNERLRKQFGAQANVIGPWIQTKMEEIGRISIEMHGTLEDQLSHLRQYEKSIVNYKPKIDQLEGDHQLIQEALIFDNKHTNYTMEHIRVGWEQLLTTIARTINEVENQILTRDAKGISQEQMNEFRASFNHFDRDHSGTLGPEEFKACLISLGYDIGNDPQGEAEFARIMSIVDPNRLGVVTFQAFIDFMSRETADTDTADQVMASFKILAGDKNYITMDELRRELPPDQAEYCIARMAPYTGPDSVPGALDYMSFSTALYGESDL
# Sequence of UniProt Q6UXT9 (Q6UXT9 whole entry, looked up): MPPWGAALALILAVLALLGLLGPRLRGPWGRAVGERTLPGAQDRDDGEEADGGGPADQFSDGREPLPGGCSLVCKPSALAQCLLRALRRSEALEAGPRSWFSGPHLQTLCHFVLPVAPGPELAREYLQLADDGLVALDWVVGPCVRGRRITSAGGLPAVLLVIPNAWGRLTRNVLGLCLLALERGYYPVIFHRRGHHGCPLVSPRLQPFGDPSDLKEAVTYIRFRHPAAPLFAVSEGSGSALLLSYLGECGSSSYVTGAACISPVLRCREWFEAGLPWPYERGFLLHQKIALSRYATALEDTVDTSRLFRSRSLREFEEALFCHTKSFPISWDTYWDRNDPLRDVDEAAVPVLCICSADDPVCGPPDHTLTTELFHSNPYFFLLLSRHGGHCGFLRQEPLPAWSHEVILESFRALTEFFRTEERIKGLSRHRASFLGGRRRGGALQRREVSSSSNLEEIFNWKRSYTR
# Sequence of UniProt Q9NUJ1 (Q9NUJ1 whole entry, looked up): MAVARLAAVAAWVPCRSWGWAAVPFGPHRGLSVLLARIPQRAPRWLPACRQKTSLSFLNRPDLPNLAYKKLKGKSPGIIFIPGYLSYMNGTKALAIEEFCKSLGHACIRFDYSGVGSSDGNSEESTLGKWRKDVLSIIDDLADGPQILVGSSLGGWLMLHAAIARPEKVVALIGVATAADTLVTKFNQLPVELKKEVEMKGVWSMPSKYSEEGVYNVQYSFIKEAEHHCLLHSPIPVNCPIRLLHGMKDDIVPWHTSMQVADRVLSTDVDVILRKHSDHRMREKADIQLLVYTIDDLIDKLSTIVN
# Sequence of UniProt P24666 (P24666 whole entry, looked up): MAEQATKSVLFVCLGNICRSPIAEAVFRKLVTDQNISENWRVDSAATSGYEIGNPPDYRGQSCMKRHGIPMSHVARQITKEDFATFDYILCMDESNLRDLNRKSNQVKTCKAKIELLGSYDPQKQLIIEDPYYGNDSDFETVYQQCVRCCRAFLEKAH
Target,probe-labelled cysteine peptide fold change ([1]; 10 µM),probe-labelled cysteine peptide fold change ([1]; 50 µM),probe-labelled cysteine peptide fold change (compound 10; 10 µM),probe-labelled cysteine peptide fold change (compound 10; 50 µM)
ACAA1_P09110_148_NGSYDIGMACGVESMSLADR (UniProt P09110),-0.681,-0.4,,
ACSL1_P33121_297_NIVSDCSAFVK (UniProt P33121),-0.0341,0.117,,
AAK1_Q2M2I8_156_LQTGFTENEVLQIFCDTCEAVAR (UniProt Q2M2I8),-0.0473,-0.0648,,
ACP1_P24666_91_QITKEDFATFDYILCMDESNLR (UniProt P24666),-0.658,-0.533,,
A8MVJ9_A8MVJ9_153_KNCIIVPNGDNVFAAVK<|>HPF1_Q9NWY4_152_KNCIIVPNGDNVFAAVK (UniProt Q9NWY4+A8MVJ9),-0.365,-0.114,,
ACAA1_P09110_123_QCSSGLQAVASIAGGIR (UniProt P09110),-0.149,-0.0511,,
ACTN4_O43707_173_EGLLLWCQR<|>ACTN1_P12814_154_EGLLLWCQR (UniProt P12814+O43707),0.134,0.169,,
AACS_Q86V21_525_FPGIWAHGDYCR (UniProt Q86V21),0.00945,-0.128,,
ABL2_P42684_266_CNKPTVYGVSPIHDK (UniProt P42684),0.341,0.298,,
ADGRE2_Q9UHX3_328_LQQHCVASHLLDGLEDVLR (UniProt Q9UHX3),-0.169,0.0528,,
AFG3L2_Q9Y4W6_402_NAPCILFIDEIDAVGRK (UniProt Q9Y4W6),-0.067,0.207,,
ADNP_Q9H2P0_514_YLPTDTLLNHMLIHGLSCPYCR (UniProt Q9H2P0),0.182,0.0384,,
ADGRL3_Q9HAR2_36_ELSCESYPIELR (UniProt Q9HAR2),0.0942,0.0561,,
AFF3_P51826_301_SGETNSCVEEIIR (UniProt P51826),-0.0479,-0.388,,
ACTR5_Q9H9F9_265_CPDYYENNVHK (UniProt Q9H9F9),-0.185,-0.249,,
ADAR_P55265_499_KLTECQLK (UniProt P55265),-0.136,-0.203,,
ADAM10_O14672_530_DDSDCAR (UniProt O14672),0.0718,0.929,,
ACSL4_O60488_303_GVMMHHSNLIAGMTGQCER (UniProt O60488),0.0224,-0.0909,,
ACSF2_Q96CM8_503_WYWTGDVATMNEQGFCK (UniProt Q96CM8),0.0727,0.0552,,
ACSL1_P33121_241_CGVEVTSMK (UniProt P33121),-0.243,-0.071,,
ABHD10_Q9NUJ1_239_EAEHHCLLHSPIPVNCPIR (UniProt Q9NUJ1),0.103,0.158,,
ABCF1_Q8NE71_741_FGLESHAHTIQICK (UniProt Q8NE71),-0.00214,0.111,,
ACIN1_Q9UKV3_1083_FLCADYAEQDELDYHR (UniProt Q9UKV3),-0.0286,-0.129,,
ABHD15_Q6UXT9_199_GHHGCPLVSPR (UniProt Q6UXT9),-0.246,-0.0346,,
WDR45B_Q5MNZ6_63_CNYLALVGGGK (UniProt Q5MNZ6),,,-0.33,-2
ACTN1_P12814_180_DGLGFCALIHR (UniProt P12814),-0.00309,0.0544,,
AGA_P20933_286_RGEDPTIACQK (UniProt P20933),-0.0737,0.169,,
ADAR_P55265_622_SPVTTLLECMHK (UniProt P55265),-0.0729,-0.0592,,
ABCF3_Q9NUQ8_102_ITENYDCGTK (UniProt Q9NUQ8),0.00483,-0.0207,,
ACADVL_P49748_477_LFVALQGCMDK (UniProt P49748),-0.11,-0.0345,,
